The list shows a part of the results.
System: PF3D7_0420300 AP2 domain 1 (GST-tagged)
Test: gcPBM binding intensity (ln(normalized median fluorescence intensity)); higher = stronger DNA binding
Procedure, shortened: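 The binding buffer was 1× PBS containing 1% milk, 0.2 mg/ml BSA, 0.5% salmon testes DNA and 0.03% Triton X-100. In it, GST-tagged P. falciparum DNA-binding domains expressed in E. coli were applied for 1 h to an Agilent 4 × 180k array of primer-extended double-stranded 36-bp intergenic genomic probes plus negative controls. Binding intensity, read with Alexa488 anti-GST antibody and a 488 nm scan, is the highest Masliner-normalised natural-log median intensity across replicate spots of either probe orientation.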

Sequence	gcPBM binding intensity (ln)
GTTCATACTTAATATTGTACTTTTCATGTAGTGTAT [XGTACX_site6613]	9.39
TAACATATTTTTAATACACACTCAAAAAAGTACTTA [CACACA_site5638]	9.2
AAATAAATATTTATATGTACATATATTTTATAATAC [XGTACX_site7041]	9.13
TACAAATATATATGCACACACATATACATACATATA [CACACA_site2182]	9.79
TATTAGATATAATATATACACACCAACGAACGAAGA [CACACA_site1134]	9.87
TTCATTCAAATTAACGTGCACATTATTAGTAAAAAC	9.08
TTATATAATTTAATAGTGCAATTATATTAATTTTTC	8.88
TATACCTATAGACACACACACATATAGATTTATATA [CACACA_site7124]	9.98
CGCATACACAGACACACACACACATATAAATATGTA [CACACA_site6444]	9.92
AATTTTTTATTAAACACACAAACATATATATATATA [CACACA_site1937]	9.18
CATATTTCTTTATTGGCACACATTTTTTCAATTATA [CACACA_site1618]	9.44
AAAAAAAAAAAAAACACACACAAATTTAATCTATAT [CACACA_site6894]	9.91
TGTTATTACTTTATATCATCTTAAAATAAGCATATT [CACACA_negctrl_site1501]	8.96
TGAAATAAATAATGCACACTCTACAGATATACGTAT [CACACA_site5270]	9.46
TTGAAAATACAAAATTGTACAAAGATTTAAATAAAA [XGTACX_site1182]	9.05
TTTATTTATTACAATTTTTGAATCACCACACAGTCG [GTGCAC_negctrl_site413]	9.01
ATCATGTTATATACATGTACATATATATATATATAT [XGTACX_site1329]	9.16
ATATATTAAAAACGATGTACCCTGAACTAAAAAAAA [XGTACX_site4986]	9.32
TATTTATTTATGTGTTGTACAAATAAATAGAGGTAT [XGTACX_site6408]	9.38
TATATGAAAATGTTCATACACACATAAAAAAAAAAA [CACACA_site3237]	9.42
AATACAAATATATACACACATACATACATACATATA [CACACA_site3147]	9.89
ATATATATATGTTACTGTACTAATTTATATGTTAAT [XGTACX_site3341]	9.42
TAGTTTTCTTAAAGATGTACATTTTAAAAATAATCT [XGTACX_site255]	8.86

Sequence	gcPBM binding intensity (ln)
TAGATATATAATTTGCGTACACAAATAATATATTTT [XGTACX_site6397]	9.04
TTATGGTTTAAATAAAGTACAAATAAATAAATATAT [XGTACX_site5777]	9.26
ATACACATATGTTAATGTACACATATATAATATTTA [XGTACX_site163]	9.28
CACAAAAATAGACACACACACATATAGATTTATTAT [CACACA_site7676]	10.1
TTATGAAAAATAAAATTAGAAAAAAAGGAAAATGAA [XGTACX_negctrl_site232]	9.24
TTTCTTAAATATATTGAGGAATAAAAAGAAGAAAAG [GTGCAC_negctrl_site281]	9.06
AGGTTACATAGATTTTGTACATATATATTATTTTTT [XGTACX_site3040]	9.37
AAAAAATTATAAAAGTGTACATATATATATATATAT [XGTACX_site154]	8.93
TAAATACTTTTATGTACACACATATAGATATATATT [CACACA_site5416]	9.36
GTGATAAATATTATATGTACATATAATATTTATGTC [XGTACX_site8023]	9.18
TTGAACCTGATAAATACACACAATATATATTTTTTT [CACACA_site2173]	9.36
CCATTCTTACTTTATTGTACTTGAAAATTTTTTTTA [XGTACX_site6160]	9.28
TCAAAAACGAGACATGCATGCAATTCATTTTGATTC [TGCATGCA_site212]	9
TTAAAATAGATAAATAGTACTCTTTCCATTATGTAA [XGTACX_site6299]	8.96
TATATAATAAGATATGCATGCACATGTAAAATGAAT [TGCATGCA_site499]	9.46
ATAATGTTTTATAATACACACATTAGATATATAAAT [CACACA_site7834]	9.41
TCATATAACACTTGATGTACAAGAATCCAAGTTGCA [XGTACX_site8758]	9.07
ATATGTATAATATATATATATATATATATATATATA [CACACA_negctrl_site623]	9
GAAATTATGTAAAAAAGTACTAACATACATATATAT [XGTACX_site1794]	9.35
GAAAACGTCTTTAATAGTACACAGTTAAAAAATACA [XGTACX_site8976]	8.98
TTTTTTTTTTTGATGGTGCAATATATTAAATAGAAA	8.87
TATATATATATATAAAGTACATATAATATATATTTG [XGTACX_site5412]	9.16
TTTTTTCATTATATATAGTATGCAAGTCAAATTAAT [GTGCAC_negctrl_site207]	8.91

Sequence	gcPBM binding intensity (ln)
AAAAAAAAAAAAAACATACACACATTGAACTTTTAT [CACACA_site3251]	9.65
CTATAAAAATATAATTGTACAAATTTTTATATCTTA [XGTACX_site7722]	8.89
ACAAAATTTACAAAATGTACAAAATTTACAAAATAT [XGTACX_site3542]	9.22
TTTTTGTGCATTGATTGTACTTTCTAGGATTATTAA [XGTACX_site7070]	9.42
TTTATCCAATAATCTGGTACACAATAATCATTCATG [XGTACX_site6192]	9.02
ATTCATATATACTTCACACACATTTTATCATTCAAA [CACACA_site2468]	9.78
TTTCTATTTATTTCAAGTACTAAAAATATATATAAC [XGTACX_site8203]	9.03
TTATTACCATATTTTGTACACACATCTTTATCTCAA [CACACA_site9054]	9.69
CTTGGGCGTCATAATGAACACACAATTATATTATGA [CACACA_site9297]	9.17
ATTATATAATCTATATGTACATATATATATATATAT [XGTACX_site4970]	9.19
TATATATAAGCGCATGCACACGCAAAGGTATATAAA [CACACA_site8107]	9.39
ATATATACAAATCCTTTTTTCCAAGATGGAAAAAGA [CACACA_negctrl_site382]	8.99
AAAATAATAAATAACGCATGCGTGTGCATTTTATTC [TGCATGCA_site898]	9.49
ATAATAATATTATTTTGTACATATGTGCTTATTTAT [XGTACX_site5540]	9.38
GTATAATTTAAAAAGTGTACATAAAGTTTTTATTAA [XGTACX_site1090]	8.85
TTTTGTCAACATTTTTATATTAGGTCTTGAACGATT [GTGCAC_negctrl_site72]	9.03
AGTAATAAGTAATTTACACACATATTATAGCATCAC [CACACA_site6971]	9.78
AGAATCACCAAATATGTACACACCTTAACATGTTTA [CACACA_site2068]	9.55
ATATATATGGTCATTTGTACATATCGTGAGAGCTGC [XGTACX_site4117]	9.24
ATATAACATAATGGATGTACATGTATAAATATAAAA [XGTACX_site8228]	9.45
TATATTATAAATTAATGTACGTAATTTTTTTTTTTT [XGTACX_site2500]	8.98
TTTTTTTTTTACTTCACACATATACATTTATATTTA [CACACA_site4385]	9.4
CCTACAATTCGTAATACACACACATATATATATATA [CACACA_site9251]	9.73

Sequence	gcPBM binding intensity (ln)
TAATTTTGTAAAAATTGTACATATTTATCTTTTTAT [XGTACX_site4305]	9.08
TCATATTATAAAAAATGTACAAGGAAAAAATATATA [XGTACX_site337]	9.46
ACATTATATAAAATATGTACACATAAATAAATAAAT [XGTACX_site5031]	9.42
AAAAAAAAAAAAAACACACACATATAATATATTTAA [CACACA_site1337]	9.69
AAAAAATTCAAAATCACACATAAAAAAGGACACATA [CACACA_site5972]	9.74
GATTAAATTTGACACTGTACAAAAAATAAAATGAGG [XGTACX_site504]	9.29
ATGAATATAAAATATACACACTTATATATTGAATGA [CACACA_site4274]	9.42
GTTAATTCATTAAGGACACACAAAAAAAAAAAAAAA [CACACA_site998]	9.17
CCAACATAGAGGGGCACACACATATATACATAAAAA [CACACA_site1847]	9.68
CTTATATGAAGCCTCTTTATTCATAAATAAGAATAA [TGCATGCA_negctrl_site120]	8.76
AGTATACATATATATACACACACATATATATATATA [CACACA_site7883]	9.61
AAACAACATGGACACGCACACACAAAAAAAGCATGC [CACACA_site73]	9.96
TTAACAAAATTTCCGTGTACGTAAATAAGAACATAG [XGTACX_site7200]	9.3
TTTTTTGAAAATAAAAGTACAAATTTTATATTTAAA [XGTACX_site2758]	8.6
ACAAACTAAAAAAGAAGTACAAATCGTATTAATAAT [XGTACX_site8684]	9.59
AGAAAAAAACGGTACAGTACACATAAACTAATTATT [XGTACX_site8617]	9.63
TATTATATATGGAAGTAATAATATATATATATATAT [GTGCAC_negctrl_site63]	9.15
AAATTGTTAAAAAGAAGTACATTCTTTTATTTCTTA [XGTACX_site540]	8.92
TAAATGTGTATATATTGTACAAATATTAATACATAC [XGTACX_site8102]	9.33
AAAGAACTTAATGCTGCACACAAAAAAAAGGAAAAA [CACACA_site8375]	9.57
